The list shows a part of the results.

This passage reports binding signal results from article PMC12820563, “FoxP3 forms a head-to-head dimer in vivo and stabilizes its multimerization on adjacent microsatellites”.

In the assay the target is T1, MBP-FoxP1dN (Mus musculus, UniProt P58462 326-579).
T1 sequence: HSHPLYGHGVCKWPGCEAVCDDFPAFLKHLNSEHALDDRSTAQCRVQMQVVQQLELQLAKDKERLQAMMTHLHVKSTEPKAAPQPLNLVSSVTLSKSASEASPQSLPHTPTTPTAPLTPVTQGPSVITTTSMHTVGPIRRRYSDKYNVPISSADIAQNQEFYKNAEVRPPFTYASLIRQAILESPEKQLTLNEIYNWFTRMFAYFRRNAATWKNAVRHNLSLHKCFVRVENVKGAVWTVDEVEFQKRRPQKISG
As to the kind of experiment: PD-seq (MBP pull-down with sequencing); 20 mM Tris-HCl pH 7.5, 100 mM NaCl, 1.5 mM MgCl2, 0.4 uM protein, 0.1 uM dsDNA library, 30 min, room temperature, amylose pull-down; high values mean tight binding. The conditions noted are these: protein: recombinant; tags: His6-MBP; chain copies: 2; dsDNA, one strand shown. The gist of the method: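 The N-terminus-lacking fragment of mouse FoxP3 or FoxP1 carried a His6-MBP tag and was expressed in E. coli. At 0.4 µM it was incubated with 0.1 µM Klenow-filled degenerate double-stranded DNA library for 30 min at room temperature in Tris pH 7.5 buffer with NaCl and MgCl2, and complexes were caught on amylose resin, washed three times, released with proteinase K, PCR-barcoded and Illumina-sequenced. Binding is reads-per-million enrichment of pull-down over input with replicates pooled.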
Regarding “GATGATTGTTCTCCCAGCTGATGAATTTTAGTTATCGAGTAAACAAATTTTCCTAATCTTTCTGTTCAAGCGCCATCTAC”, the binding signal is 1.18 RPM ratio (pull-down/input).

For “GATGATTGTTCTCCCAGCTGATGAATTGAACACTTCGAGTAAACAAATTTTCCTAATCTTTCTGTTCAAGCGCCATCTAC”, the binding signal is 0.934 RPM ratio (pull-down/input).

“GATGATTGTTCTCCCAGCTGATGAATTAAGGGAGTCGAGTAAACAAATTTTCCTAATCTTTCTGTTCAAGCGCCATCTAC”: the binding signal is 0.82 RPM ratio (pull-down/input).

For the sequence “GATGATTGTTCTCCCAGCTGATGAATTGACATGTTCGAGTAAACAAATTTTCCTAATCTTTCTGTTCAAGCGCCATCTAC”, the binding signal is 1.31 RPM ratio (pull-down/input).

As for “GATGATTGTTCTCCCAGCTGATGAATTTCCAAAGTCGAGTAAACAAATTTTCCTAATCTTTCTGTTCAAGCGCCATCTAC”, the binding signal is 0.782 RPM ratio (pull-down/input).

For “GATGATTGTTCTCCCAGCTGATGAATTGGAGCCCTCGAGTAAACAAATTTTCCTAATCTTTCTGTTCAAGCGCCATCTAC”, the binding signal is 0.719 RPM ratio (pull-down/input).

In the case of “GATGATTGTTCTCCCAGCTGATGAATTCTATAAATCGAGTAAACAAATTTTCCTAATCTTTCTGTTCAAGCGCCATCTAC”, the binding signal is 1.15 RPM ratio (pull-down/input).

Regarding “GATGATTGTTCTCCCAGCTGATGAATTGTTGCGATCGAGTAAACAAATTTTCCTAATCTTTCTGTTCAAGCGCCATCTAC”, the binding signal was 1.51 RPM ratio (pull-down/input).

In the case of “GATGATTGTTCTCCCAGCTGATGAATTCGGTATTTCGAGTAAACAAATTTTCCTAATCTTTCTGTTCAAGCGCCATCTAC”, the binding signal is 0.946 RPM ratio (pull-down/input).

Turning to “GATGATTGTTCTCCCAGCTGATGAATTCCCCGACTCGAGTAAACAAATTTTCCTAATCTTTCTGTTCAAGCGCCATCTAC”, the binding signal was 0.768 RPM ratio (pull-down/input).

“GATGATTGTTCTCCCAGCTGATGAATTTATTGTTTCGAGTAAACAAATTTTCCTAATCTTTCTGTTCAAGCGCCATCTAC”: the binding signal is 2.09 RPM ratio (pull-down/input).

“GATGATTGTTCTCCCAGCTGATGAATTCTATCGGTCGAGTAAACAAATTTTCCTAATCTTTCTGTTCAAGCGCCATCTAC”: the binding signal was 0.924 RPM ratio (pull-down/input).

In the case of “GATGATTGTTCTCCCAGCTGATGAATTGTTTAATTCGAGTAAACAAATTTTCCTAATCTTTCTGTTCAAGCGCCATCTAC”, the binding signal is 1.46 RPM ratio (pull-down/input).

On to “GATGATTGTTCTCCCAGCTGATGAATTCGTGTCCTCGAGTAAACAAATTTTCCTAATCTTTCTGTTCAAGCGCCATCTAC”, for which the binding signal is 0.835 RPM ratio (pull-down/input).

Turning to “GATGATTGTTCTCCCAGCTGATGAATTTACATACTCGAGTAAACAAATTTTCCTAATCTTTCTGTTCAAGCGCCATCTAC”, the binding signal was 1.53 RPM ratio (pull-down/input).

For “GATGATTGTTCTCCCAGCTGATGAATTTGTATCATCGAGTAAACAAATTTTCCTAATCTTTCTGTTCAAGCGCCATCTAC”, the binding signal was 1.51 RPM ratio (pull-down/input).

Take “GATGATTGTTCTCCCAGCTGATGAATTTCTGTCATCGAGTAAACAAATTTTCCTAATCTTTCTGTTCAAGCGCCATCTAC”: the binding signal is 1.15 RPM ratio (pull-down/input).

Regarding “GATGATTGTTCTCCCAGCTGATGAATTGTATATTTCGAGTAAACAAATTTTCCTAATCTTTCTGTTCAAGCGCCATCTAC”, the binding signal was 1.52 RPM ratio (pull-down/input).

For the sequence “GATGATTGTTCTCCCAGCTGATGAATTGCAAAGGTCGAGTAAACAAATTTTCCTAATCTTTCTGTTCAAGCGCCATCTAC”, the binding signal is 1.04 RPM ratio (pull-down/input).

As to “GATGATTGTTCTCCCAGCTGATGAATTACTCTTGTCGAGTAAACAAATTTTCCTAATCTTTCTGTTCAAGCGCCATCTAC”, the binding signal is 0.971 RPM ratio (pull-down/input).

Regarding “GATGATTGTTCTCCCAGCTGATGAATTTCATCATTCGAGTAAACAAATTTTCCTAATCTTTCTGTTCAAGCGCCATCTAC”, the binding signal is 0.911 RPM ratio (pull-down/input).

In the case of “GATGATTGTTCTCCCAGCTGATGAATTGGTCTCATCGAGTAAACAAATTTTCCTAATCTTTCTGTTCAAGCGCCATCTAC”, the binding signal is 0.97 RPM ratio (pull-down/input).

For the sequence “GATGATTGTTCTCCCAGCTGATGAATTACCTACGTCGAGTAAACAAATTTTCCTAATCTTTCTGTTCAAGCGCCATCTAC”, the binding signal is 0.914 RPM ratio (pull-down/input).

As to “GATGATTGTTCTCCCAGCTGATGAATTAAAACGATCGAGTAAACAAATTTTCCTAATCTTTCTGTTCAAGCGCCATCTAC”, the binding signal was 0.959 RPM ratio (pull-down/input).

“GATGATTGTTCTCCCAGCTGATGAATTCTCCGTCTCGAGTAAACAAATTTTCCTAATCTTTCTGTTCAAGCGCCATCTAC”: the binding signal is 0.849 RPM ratio (pull-down/input).

In the case of “GATGATTGTTCTCCCAGCTGATGAATTCGCTCAATCGAGTAAACAAATTTTCCTAATCTTTCTGTTCAAGCGCCATCTAC”, the binding signal was 0.977 RPM ratio (pull-down/input).

For the sequence “GATGATTGTTCTCCCAGCTGATGAATTTAACTTTTCGAGTAAACAAATTTTCCTAATCTTTCTGTTCAAGCGCCATCTAC”, the binding signal was 0.855 RPM ratio (pull-down/input).

In the case of “GATGATTGTTCTCCCAGCTGATGAATTTGCTGGCTCGAGTAAACAAATTTTCCTAATCTTTCTGTTCAAGCGCCATCTAC”, the binding signal is 0.872 RPM ratio (pull-down/input).

With “GATGATTGTTCTCCCAGCTGATGAATTAGCGTAATCGAGTAAACAAATTTTCCTAATCTTTCTGTTCAAGCGCCATCTAC”, the binding signal was 1.41 RPM ratio (pull-down/input).

Consider “GATGATTGTTCTCCCAGCTGATGAATTTTTATCTTCGAGTAAACAAATTTTCCTAATCTTTCTGTTCAAGCGCCATCTAC”, for which the binding signal was 1.07 RPM ratio (pull-down/input).

In the case of “GATGATTGTTCTCCCAGCTGATGAATTCCGACGATCGAGTAAACAAATTTTCCTAATCTTTCTGTTCAAGCGCCATCTAC”, the binding signal was 0.781 RPM ratio (pull-down/input).
